Test results taken from the supplement of paper PMC11417369.
± gives the standard deviation of the averaged measurements. The list shows a part of the results.

These sequences were tested on PfAP2-I AP2 domain 3 (GST-tagged) (assay: gcPBM binding intensity (ln(normalized median fluorescence intensity)); higher = stronger DNA binding).
Summary of the method: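 GST-fused DNA-binding domains of P. falciparum, expressed in E. coli, were applied at about 25 μg on average for 1 h to an Agilent 4 × 180k array of primer-extended double-stranded 36-bp intergenic genomic probes and negative controls. Binding intensity is the highest Masliner-normalised natural-log median intensity across replicate spots of either probe orientation, measured with Alexa488 anti-GST antibody and a 488 nm scan.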
With “CACAGTGATATAAAAACACACATGAATTATAATTTC [CACACA_site1667]” the “gcPBM binding intensity (ln)” value was 7.46 ± 0.64.
For “TTTTGTTATGGTTTGATGCACTTATATATAAATATT [GTGCAC_site9705]”, the “gcPBM binding intensity (ln)” value was 9.53 ± 0.43.
“ATATATATATATATATGTACTTATTACCAATGTTAG [XGTACX_site1896]” was tested, and the “gcPBM binding intensity (ln)” value was 9.34 ± 0.29.
“TAATTATGTATGAACTGTACAGGTTATTTTATTTTA [XGTACX_site5204]” was tested, and the “gcPBM binding intensity (ln)” value was 7.76 ± 0.26.
For “TAAAATTTAAATTATACACACTTAAGTAACATCATC [CACACA_site4450]”, the “gcPBM binding intensity (ln)” value was 7.96 ± 0.51.
“AAAAAATACCTCTATAGTACATATATATAATATTTA [XGTACX_site7222]” was tested, and the “gcPBM binding intensity (ln)” value was 7.55 ± 0.52.
“AAAAAAAATTTATTTGCATGCAAAAAAAAAAAAAAA [TGCATGCA_site67]” was tested, and the “gcPBM binding intensity (ln)” value was 8.23 ± 0.89.
In the case of “TCTTAAATATATAAATTGAAAAATATAAAAGTAATA [CACACA_negctrl_site1558]”, the “gcPBM binding intensity (ln)” value is reported as 7.5 ± 0.46.
In the case of “AAAACAATATACTGTAGTACTGATGATATATATATA [XGTACX_site7798]”, the “gcPBM binding intensity (ln)” value is reported as 8.98 ± 0.092.
“ACAATATAGATTAAAAGTACAAATAGTAAATTATAT [XGTACX_site3165]” was tested, and the “gcPBM binding intensity (ln)” value was 7.85 ± 0.72.
With “ATAAAAAAAAATAGCACACATAAATATATTATATAT [CACACA_site767]” the “gcPBM binding intensity (ln)” value was 7.98 ± 0.35.
For “CTACTTATAAATAGAACACACATAAGTGTATTTGTA [CACACA_site3759]”, the “gcPBM binding intensity (ln)” value was 7.66 ± 0.33.
In the case of “AATCATCTCATAAAAATTAATTAGTGTATGTCTTTT [TGCATGCA_negctrl_site416]”, the “gcPBM binding intensity (ln)” value is reported as 7.39 ± 0.59.
In the case of “TATATACATACATATACACACATATATATATATATA [CACACA_site401]”, the “gcPBM binding intensity (ln)” value is reported as 9.21 ± 0.51.
“GTATAAAATATTGATTGTACTTTATTCATTTTTTTT [XGTACX_site2520]” was tested, and the “gcPBM binding intensity (ln)” value was 7.55 ± 0.43.
“TCATATTCCAAGTGTACACATAAATCCCTAATAACA [CACACA_site5167]” was tested, and the “gcPBM binding intensity (ln)” value was 8.15 ± 0.51.
In the case of “TCATTGTTTAATATGTGTCCTCAAAATTTGTTATAT [XGTACX_site677]”, the “gcPBM binding intensity (ln)” value is reported as 7.76 ± 0.52.
With “TCTTGTTAATATATTAAATATATCTATAAATATATA [XGTACX_negctrl_site486]” the “gcPBM binding intensity (ln)” value was 7.7 ± 0.41.
In the case of “ACAAATGGAACTCCTACAAAAAATTTCCATAATATT [XGTACX_negctrl_site132]”, the “gcPBM binding intensity (ln)” value is reported as 7.42 ± 0.66.
For “TAAACCTATTATACGGGTACTTATTTGATTCTTATA [XGTACX_site5292]”, the “gcPBM binding intensity (ln)” value was 7.57 ± 0.56.
In the case of “AAAAATAAAACAATTACACACATAACTTTATTTTTA [CACACA_site6563]”, the “gcPBM binding intensity (ln)” value is reported as 7.82 ± 0.52.
With “AAAAGCTTAAAAAATTGTACATAAATGAATAAATAT [XGTACX_site5201]” the “gcPBM binding intensity (ln)” value was 7.54 ± 0.53.
For “GAACTCATTTAATATTGTACATTCTGATATTTTTTA [XGTACX_site5995]”, the “gcPBM binding intensity (ln)” value was 7.93 ± 0.49.
In the case of “ACCACCATATAACATACATGCATCTTTTTTCCCTTC [TGCATGCA_site583]”, the “gcPBM binding intensity (ln)” value is reported as 8.71 ± 0.5.
In the case of “AATATATGATAATTTTTTTTTTTTTTTTTTAAATAT [CACACA_negctrl_site452]”, the “gcPBM binding intensity (ln)” value is reported as 7.21 ± 0.35.
“AACAATTGTTAAAGGTGTACCATATGTATATAAGAA [XGTACX_site5723]” was tested, and the “gcPBM binding intensity (ln)” value was 8.38 ± 0.56.
In the case of “AGACGTAATAATTGTTGTACATAAAAAAATAAGAAA [XGTACX_site7594]”, the “gcPBM binding intensity (ln)” value is reported as 8.02 ± 0.46.
For “AAAAAATGTTAAAAAAGTACTTTCTTTATTTAATAA [XGTACX_site2908]”, the “gcPBM binding intensity (ln)” value was 7.51 ± 0.3.
For “TGTGTTAGCAAAAAAGTGCACAGGGAAAAAAAAATA [GTGCAC_site9397]”, the “gcPBM binding intensity (ln)” value was 10.5 ± 0.17.
For “ATGATATTATAAAAAAGTACATATGTATATAATTAT [XGTACX_site7652]”, the “gcPBM binding intensity (ln)” value was 8.03 ± 0.44.
For “AATGCACAGCTCTTAGGCAAAAGTGGGTATTTACAC [GTGCAC_negctrl_site579]”, the “gcPBM binding intensity (ln)” value was 8.76 ± 0.53.
In the case of “TGTATAAAAAACTAATGTACAAATGACAAGATATCT [XGTACX_site4600]”, the “gcPBM binding intensity (ln)” value is reported as 7.61 ± 0.61.
For “CATTTAGTTCATACTATGCACACTACGTATATTTTT [CACACA_site2694]”, the “gcPBM binding intensity (ln)” value was 8.82 ± 0.58.
“ATTTAATACAAATACACACACAAATATGTACCTATA [CACACA_site7718]” was tested, and the “gcPBM binding intensity (ln)” value was 7.8 ± 0.54.
In the case of “ACAATTCATTAGAATTGTACAAAAGGATGAAGCGAA [XGTACX_site5242]”, the “gcPBM binding intensity (ln)” value is reported as 8.14 ± 0.64.
With “ATTTTTTTTTTTTAATTTGATATTTGCGTTTATATA [CACACA_negctrl_site1305]” the “gcPBM binding intensity (ln)” value was 7.46 ± 0.65.
With “AATTTTTTTTTCTTTTGTACGTAAATATGTGTAGGC [XGTACX_site215]” the “gcPBM binding intensity (ln)” value was 8.33 ± 0.26.
In the case of “CTAATAAAAAAAAAAAGTACATATGACAATATAAAG [XGTACX_site1598]”, the “gcPBM binding intensity (ln)” value is reported as 8.17 ± 0.44.
In the case of “TTAACACATTTTATGTGTACTCATATGATTTAAAAT [XGTACX_site7516]”, the “gcPBM binding intensity (ln)” value is reported as 7.78 ± 0.18.
In the case of “TTAAAATGAAGAAGTGCACACATATATATATTTATA [CACACA_site8063]”, the “gcPBM binding intensity (ln)” value is reported as 9.67 ± 0.18.
In the case of “TATAAACAGACGAAAACACACATATGTAGATATATA [CACACA_site6371]”, the “gcPBM binding intensity (ln)” value is reported as 7.9 ± 0.69.
For “TATATATTAGTGTTGACACACACAAAAAAAAAAAAA [CACACA_site8392]”, the “gcPBM binding intensity (ln)” value was 8.12 ± 0.71.
For “ATTTTTTTTTTTTTTTTTTTTTTTTATGAATGTTAT [CACACA_negctrl_site1319]”, the “gcPBM binding intensity (ln)” value was 7.62 ± 0.5.
With “ATCAGGCAAAATTTTTGTACATATATATTTTATTTT [XGTACX_site1245]” the “gcPBM binding intensity (ln)” value was 8.06 ± 0.63.
“ATTTTTTTTTTTTTTTTTTTTTTTTTTTTTTTTTTT [CACACA_negctrl_site1364]” was tested, and the “gcPBM binding intensity (ln)” value was 10.4 ± 0.2.
In the case of “AGATTTCAAGGTAATAGATCAATTTTAATTTGTAAA [CACACA_negctrl_site514]”, the “gcPBM binding intensity (ln)” value is reported as 7.18 ± 0.4.
In the case of “ATGAACATGTGACAATGTACATTTATATCTTAAGAA [XGTACX_site4960]”, the “gcPBM binding intensity (ln)” value is reported as 7.61 ± 0.51.
For “ATAATATATATATATATGTATGTATATATGTATGTA [GTGCAC_negctrl_site575]”, the “gcPBM binding intensity (ln)” value was 7.64 ± 0.38.
“TACACCCAGAAATGCACACACATATATATATATATA [CACACA_site5289]” was tested, and the “gcPBM binding intensity (ln)” value was 9.61 ± 0.26.
With “TATATATATATAATAGCATGCTATATTATATATATA [TGCATGCA_site886]” the “gcPBM binding intensity (ln)” value was 8.98 ± 0.35.
“TATTCTTATTATTACACACACAATTATATTTACCCC [CACACA_site6381]” was tested, and the “gcPBM binding intensity (ln)” value was 8.29 ± 0.32.
In the case of “TTAACATAAATTGTGTCATTTTTTTTTTTTTTTTTA [CACACA_negctrl_site1221]”, the “gcPBM binding intensity (ln)” value is reported as 7.21 ± 0.56.
“TATTTTTTAATTGTTTCACACATTATTTTTTACATA [CACACA_site6078]” was tested, and the “gcPBM binding intensity (ln)” value was 7.72 ± 0.54.
For “TTTTATATAAATATCACACACACACGCATGTTTTAA [CACACA_site6187]”, the “gcPBM binding intensity (ln)” value was 7.86 ± 0.66.
With “TACAATATACCTACTTGTACACAAAATAAAAGTAGT [XGTACX_site6029]” the “gcPBM binding intensity (ln)” value was 7.86 ± 0.45.
With “TACACACCTAACTATGCATGCATCAATATAGTGGAT [TGCATGCA_site443]” the “gcPBM binding intensity (ln)” value was 7.76 ± 0.75.
